Laboratory results: the antibiotic and cytotoxicity screens of Wong et al. (2023)
Some of the results follow.

Columns and labels:
HSkMC = human skeletal muscle cells; assay: cytotoxicity call (relative viability < 0.9); conditions: 10 µM
S. aureus RN4220 = assay: growth inhibition call (relative growth <= 0.2); conditions: 50 µM

SMILES | cytotoxicity call (HSkMC) | growth inhibition call (S. aureus RN4220)
CC1(C)C(O)CC(O)C2(C)C1CC(=O)C1(C)C2CCC2(C)C(c3ccoc3)OC(=O)C3OC321 (configuration not stated) | inactive | inactive
O=C(O)CC[N+](=O)[O-] | inactive | inactive
Cc1nc(N)sc1CCN | inactive | inactive
CC[C@@H](CN)c1ccccc1 | inactive | inactive
C=CCC1(O)CCC2C3CCC4=CCCCC4C3CCC21C (configuration not stated) | active | inactive
NC1(Cc2ccc(Cl)cc2)CC1 | inactive | inactive
C=CC1CN2CCC1CC2C(OC(=O)OCC)c1ccnc2ccc(OC)cc12 (configuration not stated) | inactive | inactive
C[C@@H]1CN([C@@H](C)CO)C(=O)CCCn2cc(nn2)CO[C@H]1CN(C)C(=O)Oc1ccc2ccccc2c1 | inactive | inactive
N#CCCN.O=C(O)C=CC(=O)O | inactive | inactive
Cc1cccnc1N1CCNCC1 | inactive | inactive
CC1(C)NN1CCCN1NC1(C)C (configuration not stated) | inactive | inactive
C[C@@H](O)CN1C[C@H]2C[C@@H](C1)c1cccc(=O)n1C2 | inactive | inactive
NC(Cc1ccccc1)Cc1ccccc1 | inactive | inactive
CN1[C@@H]2CC[C@@H]1CC(N)C2 (some centres not stated) | inactive | inactive
Cn1c(CCN)nc2ccccc21 | inactive | inactive
Nc1nnns1 | inactive | inactive

SMILES | cytotoxicity call (HSkMC) | growth inhibition call (S. aureus RN4220)
[N-]=[N+]=NCc1ccccc1C[C@@]1(C(=O)N2CCCCC2)N=C(c2ccc(OCCCO)cc2)O[C@@H]1c1ccccc1N=[N+]=[N-] | inactive | inactive
CC(=O)Nc1cc([As](=O)(O)O)ccc1O | inactive | inactive
O=C(O)/C=C/CO | inactive | inactive
NCCc1cc(O)c(O)cc1O | inactive | inactive
N#C[C@H]1NCc2cnnn2-c2ccccc21 | inactive | inactive
O=c1cccc2n1C[C@@H]1CNC[C@H]2C1 | inactive | inactive
CC(C)[C@H]1CN2CCC[C@H]2[C@@]2(O)O[C@](CC(=O)[C@@H]3C=C4c5cccc6[nH]cc(c56)C[C@H]4N(C)C3)(C(C)C)C(=O)N12 | inactive | inactive
C[C@H]1C[C@@H]2CNC[C@@H]2O1 | inactive | inactive
C[C@@H]1CN([C@@H](C)CO)C(=O)CCCn2nncc2CO[C@@H]1CN(C)C(=O)Oc1cccc2ccccc12 | inactive | inactive
Cc1nccc2c1[nH]c1ccccc12 | inactive | inactive
CCN(CC)S(=O)(=O)c1ccc(Cn2nc(C(=O)Nc3ccc(N4CCCCC4)cc3)c3ccccc32)cc1 | inactive | inactive
C[C@@H](N)Cc1c[nH]c2ccc(O)cc12 | inactive | inactive
C=C[C@H]1[C@H](O[C@@H]2O[C@H](CO)[C@@H](O)[C@H](O)[C@H]2O)OC=C2C(=O)OCC[C@H]21 | inactive | inactive
OCC[N+]12CN3CN(CN(C3)C1)C2 | inactive | inactive
Cn1cc(C(=O)Nc2nn[nH]n2)c2ccccc21 | inactive | inactive
